Measured values published in PMC5515408.
The other results are listed elsewhere or left out. At the low end of the ranking, values are background and their order means little.

system: MYC (p64) + MAX (p21), in MYC:MAX; assay: protein-binding microarray (anti-MAX antibody); conditions: PBM: 15 mM Tris-HCl pH 7.5, 100 mM KCl, 0.075% NP40, 7.5 mM beta-mercaptoethanol, 375 ng/ul BSA, 8 ng/ul poly(dA-dT):(dA-dT), 550 ng complex, 60 min, room …; high values mean tight binding; double strand, one strand shown; sequences stand for … in CCGGC…TTAATAGCTAAGATTACTATATCGACG

Sequence	binding signal (log2 normalized fluorescence)
TGAACTCGTGTA	0.606
TTACACGTGTTA	1.05
TGACCCCGGGTA	0.00322
TGAAGATACGTA	-0.0327
TGGCACGCGGTA	0.538
TGAGCACGGGTA	0.289
TGAGATAGTGTA	-0.0988
TTGGACGTGGTA	0.287
TGACTGAATGTA	0.141
GCAAACGTGGTA	0.579
TGAAGCGGAGTA	-0.165
TGACGAGGTGTA	0.293
TGATGCCGTGTA	0.205
TGAGCAAGCGTA	0.119
TGATCTTTAGTA	-0.0298
TGACACGTCAAA	0.598
TGAAAGTGTGTA	0.0834
TGATTATGCGTA	0.0442
TAACACGTGGTT	1.01
TGACTTTAGGTA	-0.173
TGAGTGGGCGTA	0.162
TGAAACATCGTA	0.226
TGACGCCAAGTA	0.114
TGAATTTAGGTA	-0.246
TGACCCGACGTA	0.117
TGACAAGCGGTA	0.238

Sequence	binding signal (log2 normalized fluorescence)
TGAACGCTAGTA	0.178
TGATAAGGTGTA	0.0319
TGACGGTGCGTA	0.0818
TGACACATCGTA	0.252
TGATCACTAGTA	0.124
TGACACGTGTGG	0.792
TGACACGTGCGA	0.786
CGACACGTTGTT	0.661
TGAACAAGGGTA	0.093
AGAAACGCGGTA	0.575
TGACTTCAAGTA	-0.0414
TGATTTACGGTA	-0.0682
TGAAGATAAGTA	0.0111
TGATTACATGTA	0.234
TGACTGTGTGTA	0.107
TGAAAGTTGGTA	-0.0779
TGACAAGGTGTA	0.404
CGACCTTAAGGC	0.161
TGAAGTACACTT	0.308
TGAGTAACTGTA	-0.0948
TGAGTCAAGGTA	-0.0529
TGATAACTGGTA	-0.0186
TGACACGTGCTT	0.771
TGACCGGGCGTA	0.223
TGAACCGTCGTA	0.0573
TGAAGGTCCGTA	0.107

Sequence	binding signal (log2 normalized fluorescence)
TGAGATTTCGTA	-0.126
TGAGGTTGTGTA	-0.0504
TGACTACCCGTA	0.212
TGAGAAGCAGTA	-0.0873
GGACACGGGGTT	0.494
TGACGAGACGTA	0.0535
TGAGACGGCGTA	0.02
TGATTGAGCGTA	-0.14
TGACTGGAGGTA	0.07
TGACGCTGAGTA	0.207
TGAGCCTAGGTA	-0.239
TGAACCATGGTA	0.153
TGATAGACCGTA	0.0117
TGAACAAGCGTA	0.0159
TGATTTAAAGTA	-0.115
TGACCTGGCGTA	0.157
TGACCGTTAGTA	0.0484
TGAACCTCCGTA	0.191
TGAGATCTAGTA	-0.0579
TGAAGAAGAGTA	-0.139
TGACGGAGGGTA	0.0182
TGATCCGCCGTA	-0.142
TGATGACTGGTA	0.0318
TGATACGTGATA	0.107
TGACACGTCTCA	0.462
TGACCTCCGGTA	-0.0525

Sequence	binding signal (log2 normalized fluorescence)
TGAACCCAGGTA	0.207
TGATATAGGGTA	-0.0127
TGACACGTGCAA	0.779
TGACACACGTTA	0.532
TATAACGTGGTA	0.627
TGACACGTTGCG	0.491
TGAAGCCTAGTA	-0.229
TAATACGTGGTA	0.38
TGAGTAAGTGTA	-0.0298
TGATCGGAGGTA	-0.0816
AAGGACGTGGTT	0.419
TGAATATGGGTA	0.0891
TGAATATGTGTA	0.145
TGAGAGTAGGTA	-0.165
TGAATGGTGGTA	0.205
TGAGGGGCGGTA	0.593
TGAACACGAGTA	0.44
TGACTACTGGTA	0.0391
TGATAACTAGTA	-0.129
TGATATCAGGTA	0.107
TGATTGCGAGTA	-0.0261
TGAACTGAGGTA	-0.0372
TGACACGATCTA	0.385
TGAGGTGGTGTA	0.00542
TGAGGTCGGGTA	-0.142
TGACAAATCGTA	0.0848

Sequence	binding signal (log2 normalized fluorescence)
TGAAGCCCCGTA	0.000961
TGATACCTTGTA	0.113
TGAGAATCAGTA	-0.0698
TGATGGACCGTA	0.119
TGACTAATTGTA	-0.0207
TGAGGCGTTGTA	0.118
TGATAAAGCGTA	-0.175
TGAACGGAGGTA	-0.0159
CGACACGGGGTC	0.594
TGGGACGTGGTA	0.237
TGACGCCACGTA	0.312
TGAGGCGCCGTA	0.195
TGATCAGCCGTA	0.0261
TGATGATATGTA	0.0143
TGACACGTGTCT	0.735
TGAATCGTAGTA	0.112
TGAACGAGTGTA	0.0924
TGAATTAGTGTA	0.0274
TGACACCTAGTA	0.141
TGAGAGGGGGTA	0.749
TGAAGCTAGGTA	-0.0387
TGAAACACTGTA	0.309
TGATCATTTGTA	0.247
TGTTTCGTGGTA	0.0525
